# Data reported in the supplement of paper PMC3334620.
# In all, about 33,000 sequences were measured (“E-score (-0.5 to 0.5)”: median about -0.035, highest 2% from about 0.35 on). Some of the results follow.
# Molecular target: T1, Pdr3 (UniProt P33200)
# T1 sequence: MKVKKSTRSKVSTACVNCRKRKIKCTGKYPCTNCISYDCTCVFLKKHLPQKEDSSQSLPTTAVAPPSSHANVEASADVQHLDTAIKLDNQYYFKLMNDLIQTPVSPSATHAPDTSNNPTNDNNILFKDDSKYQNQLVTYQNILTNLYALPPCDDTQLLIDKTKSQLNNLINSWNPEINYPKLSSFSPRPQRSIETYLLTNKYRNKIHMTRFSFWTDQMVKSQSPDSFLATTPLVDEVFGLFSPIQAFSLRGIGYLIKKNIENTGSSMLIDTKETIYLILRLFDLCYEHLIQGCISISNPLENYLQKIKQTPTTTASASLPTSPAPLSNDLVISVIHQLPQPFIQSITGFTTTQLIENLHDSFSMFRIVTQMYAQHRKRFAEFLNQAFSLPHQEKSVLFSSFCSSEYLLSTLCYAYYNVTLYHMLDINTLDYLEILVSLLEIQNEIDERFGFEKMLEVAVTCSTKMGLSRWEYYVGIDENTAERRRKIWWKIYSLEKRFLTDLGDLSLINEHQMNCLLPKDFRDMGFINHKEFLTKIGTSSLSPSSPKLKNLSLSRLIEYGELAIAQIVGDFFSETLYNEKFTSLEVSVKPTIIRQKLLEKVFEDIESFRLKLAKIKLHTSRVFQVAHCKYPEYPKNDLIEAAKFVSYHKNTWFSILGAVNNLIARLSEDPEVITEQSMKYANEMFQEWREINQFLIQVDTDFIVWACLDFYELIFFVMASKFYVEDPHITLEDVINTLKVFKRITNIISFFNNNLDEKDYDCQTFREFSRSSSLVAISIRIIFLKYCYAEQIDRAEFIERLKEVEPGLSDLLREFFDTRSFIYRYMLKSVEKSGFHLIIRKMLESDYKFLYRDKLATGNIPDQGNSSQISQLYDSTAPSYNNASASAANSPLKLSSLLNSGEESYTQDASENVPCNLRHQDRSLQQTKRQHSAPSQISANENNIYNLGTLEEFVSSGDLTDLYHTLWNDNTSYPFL
# Experiment: PBM E-score (8-mer binding enrichment) (E-score (-0.5 to 0.5)); higher = stronger / more preferred TF binding; most listed sequences are background and not binding sites
# Details: protein concentration: 200 nM; construct: GST-full length
# Outline: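 Full-length yeast transcription factors or their DNA-binding domains, GST-tagged and expressed with PURExpress, were applied at about 100-200 nM to universal all-10-mer Agilent arrays. These arrays had been made double-stranded by primer extension on fresh or once-stripped slides. Detection used fluorescent anti-GST, normalisation used masliner, and E-scores for ungapped eight-base words pooled with reverse complements came from the Universal PBM Analysis Suite.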
row,Sequence,PBM E-score
1,GGTGGTAA,0.193
2,AACCCAGG,-0.12
3,AGTCGGTA,-0.161
4,ATTGCGAA,-0.0818
5,GAGCTTTA,-0.0106
6,GCGGGACC,0.323
7,TAGACGGA,0.328
8,AAGCTGCT,-0.0969
9,ACACGTAG,-0.284
10,CCTCGAGA,-0.0189
11,ACCTCACT,-0.13
12,ACACATAA,-0.0675
13,CCCCTTAA,-0.204
14,TCTCGGCA,0.217
15,AACGGGAG,0.179
16,TCACGCGA,-0.0116
17,GCACGCAC,-0.164
18,AGGGGAGA,-0.195
19,AGTGTACA,-0.202
20,TTTTAAAA,-0.0969
21,CGCAGTCC,-0.00097
22,GAGGCTTA,-0.117
23,CTTCCAAC,0.0212
24,GTGGCTTA,-0.231
25,CGGTAGGC,-0.0277

row,Sequence,PBM E-score
1,CGTAGCAA,-0.128
2,CGGCGTTC,0.127
3,GCGGAATA,0.398
4,GCATGAAC,0.12
5,CAAGACGG,0.0936
6,ACCGAATA,-0.0346
7,GTCCCGGA,0.394
8,ACCATCGT,-0.106
9,CAGATGGG,-0.123
10,CACCATGC,-0.0273
11,AGCACAAA,0.12
12,GAGTTTTA,-0.05
13,CCTAGTAG,-0.212
14,ATTGATAA,-0.144
15,CCCGACGA,0.193
16,CCTGGTAA,-0.0941
17,GGCGTTCA,-0.00773
18,ACCTAAAA,-0.145
19,ACCCACTG,0.0251
20,CAGTACCC,-0.0015
21,TCAGGACA,0.0152
22,CGCGTCTC,0.0716
23,CATCGCAC,-0.0715
24,GACCGTTA,0.0194
25,GCGGTAGA,-0.0184

row,Sequence,PBM E-score
1,TATACAGA,-0.0427
2,CGCATACA,-0.0893
3,ACTCTTAT,-0.0592
4,CGAGTCGC,-0.0735
5,AAGCGCAT,-0.109
6,ACCAATTA,-0.0106
7,GACAACAC,-0.08
8,TATAGTAA,0.0774
9,CCCCCCTC,-0.285
10,TAGTACGA,-0.00259
11,TATTACCA,-0.138
12,CTCCTAGC,-0.298
13,ACGAATAG,-0.209
14,CCAGTAGG,-0.132
15,ACTCTCCG,0.302
16,TCCCGCAA,0.223
17,CGTGACGA,0.0083
18,ACACTACA,0.034
19,ACGGAGGC,0.249
20,GGAGTTGA,0.0524
21,GATCACGC,0.143
22,AGGGAGCC,-0.108
23,ACAATCAC,-0.131
24,CTGGCTAA,-0.187
25,CAATGGTA,-0.00598

row,Sequence,PBM E-score
1,ACTGTGTC,-0.0823
2,ACGAACAA,0.108
3,AATTAGGG,-0.0163
4,AGTGTAAC,-0.158
5,GAAGAATA,-0.231
6,GCCACACA,0.0788
7,CACGCACA,-0.00829
8,CGGGGACG,0.124
9,TGGATGAA,-0.0658
10,ACTTACGC,-0.113
11,CGCCCCCG,0.14
12,GACTCTGA,-0.109
13,GTCGGGGA,0.136
14,AAGGCCCC,-0.0506
15,GCAGGCGC,0.0764
16,ATTCGAAC,-0.067
17,GCGCACGC,0.0986
18,ATACTCGG,0.192
19,AAGAATAC,-0.0155
20,AGTGTTTC,-0.0492
21,TGCTCACA,-0.239
22,AGTTGAAC,-0.126
23,CCGAGGAG,0.132
24,CGGAGTAG,0.304
25,AGATAGCT,-0.0286

row,Sequence,PBM E-score
1,GACAATTA,-0.0371
2,ACGAGGCG,0.131
3,GCGAATCA,0.0185
4,GCTTAGAC,-0.21
5,ATGAGTGG,-0.132
6,CCAAGGCC,-0.138
7,CAATAAAG,-0.0376
8,ACGCGCAT,-0.0392
9,CCCCTGGA,-0.189
10,TAAGAGCA,-0.058
11,ATAACGTA,0.0709
12,ATGCTGTG,-0.127
13,CACGAACA,0.0536
14,ATGTTTGA,-0.143
15,TCCTGGCA,-0.103
16,CGCCGGGA,0.382
17,GCGCTCCC,0.126
18,CATGTATA,-0.107
19,AGGTCTCG,-0.0596
20,GTTTCGAA,-0.103
21,AGCCCCCA,-0.313
22,TCCTTGCA,0.0152
23,GTACGAAC,0.105
24,GCAGAACA,0.0155
25,GACCAGAA,-0.0571

row,Sequence,PBM E-score
1,ACCAACCG,0.131
2,GCGAGGCC,-0.0699
3,GCCGGGCC,0.12
4,ACGAATAA,0.0662
5,GGGCCTTA,-0.127
6,CTACTGGA,-0.111
7,TCCGTGAA,0.292
8,ACGATCGC,0.0932
9,AGCGAACA,0.0441
10,AGGGACAA,-0.00735
11,GTAAAGGA,-0.0548
12,CACTTGAG,-0.186
13,ACCCCCTA,-0.329
14,AGATATCC,0.134
15,AAATGATT,0.242
16,ATGTCAGA,-0.153
17,GAACAAGC,-0.0175
18,ATCATTAG,-0.196
19,GAAAAGCC,0.102
20,ATCATACA,-0.0423
21,ACCTGGTA,-0.121
22,ATTAGGTG,-0.0638
23,ACAGCTAA,-0.183
24,AGGTCAGG,-0.144
25,ATCTGGAC,-0.0423

row,Sequence,PBM E-score
1,GGATTTCA,0.199
2,ATTTTAGC,-0.0617
3,TATGGGCA,-0.0617
4,CGCGTGTC,0.21
5,TGTTTAAA,-0.205
6,GCGGCCCC,0.0899
7,AGGGCTAC,-0.225
8,AGCAGCTC,-0.121
9,ATGGGTCC,0.14
10,CAGATCGC,0.113
11,AGCGGGAG,0.0627
12,ATATCCCC,0.0317
13,GGGTCACC,-0.159
14,CGCTCATC,0.013
15,GCGGAAGA,0.393
16,CTTGGTCA,-0.0783
17,GCACGCTA,0.0255
18,AGAGTCGA,-0.0208
19,CTGACGAA,-0.0238
20,ATGGGATC,0.0712
21,CCCCACCA,0.0754
22,GCACTGCA,-0.108
